Results reported in PubChem BioAssay AID686971 (National Center for Advancing Translational Sciences (NCATS), 2013).
About 7,500 (2.1%) of roughly 360,000 compounds were called active. Inconclusive results, whose numbers are uncertain, are shown with a selection of clear calls. Calls come from the whole dose curve; as a rule, active = well fitted cell-killing curve with a large enough effect; inconclusive = small, poorly fitted or top-dose-only effect, or effect the other way, or another doubt; inactive = no such curve, though single readings can be large or run the other way. No potency is given beside an inconclusive call; the fits are too rough. More than one record can exist for a structure, and the calls need not agree.

Assay: qHTS for induction of synthetic lethality in tumor cells producing 2HG: qHTS for the HT-1080-IDH1KD cell line;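 for activity, negative = toxicity: 0% = DMSO wells and -100% = cell-free medium wells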
Settings: HT-1080 IDH1 knockdown viability, ATP luminescence, 48 h; activity, negative = toxicity: at 46.1 µM (top of the series) unless noted
Procedure, shortened: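 Viability of IDH1-knockdown HT-1080 fibrosarcoma cells was assessed by CellTiter-Glo after 48 h at 37 °C with titrated compound; concentration-effect curves were classified by fit quality and response size.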
Potency is the fitted concentration of half-maximal effect; tags give direction and shape of the fitted curve.

| Structure (SMILES) | Potency | activity, negative = toxicity |
| --- | --- | --- |
| O=C1C(=O)N(Cc2cccc([N+](=O)[O-])c2)c2ccccc21 | inconclusive [cytotoxic, single point] |  |
| CCO[C@H]1OC(C(N)=O)=C[C@@H](C(C)(C)C)[C@@H]1CCCO | inactive |  |
| CN1c2ccccc2C(C)(C)[C@]12C=Cc1cc(O)ccc1O2 | active: 18.4 µM |  |
| COc1ccc(NC(=O)C(=O)NNC(=O)C(C)Oc2ccc(Cl)cc2Cl)cc1 (configuration not stated) | inactive |  |
| CC(C)(C)NC(=S)Nc1ccc(Nc2ccccc2)cc1 | active: 6.31 µM |  |
| COc1ccc(OC)c(C(=O)NC(CC(N)=O)c2ccc(N3CCN(c4ccccn4)CC3)c([N+](=O)[O-])c2)c1 (configuration not stated) | inactive |  |
| Oc1ccccc1-c1nc2c3ccccc3c3ccccc3c2[nH]1 | inconclusive [cytotoxic, single point] |  |
| CCc1c(C)nc(Nc2nc(C)c3cc(OC)ccc3n2)[nH]c1=O | inactive |  |
| CCOC(=O)Cc1cc(=O)n2[nH]c(C)c(-c3ccc(Cl)cc3)c2n1 | inconclusive [cytotoxic, single point] |  |
| CC(=O)Nc1ccc(SC[C@H](CC(C)C)N2CCN(CC(C)C)CCC2=O)cc1 |  | inconclusive: -1.97% [cytotoxic] |
| Cc1ccc(/C=C/C(=O)NC2CCCCCCC2)o1 | inconclusive [cytotoxic, single point] |  |
| CC1(C)CC(=O)C=C(c2ccc(-c3ccc(OC(F)(F)F)cc3)cc2)C1=O | active: 20.6 µM |  |
| C=CCOC(=O)C1=C(C)Nc2nnnn2C1c1cccs1 (configuration not stated) | inconclusive [cytotoxic, single point] |  |
| COc1ccc(-c2cc(CNC(=O)CCl)on2)cc1 | inconclusive [cytotoxic, single point] |  |
| O=S(=O)(c1cccc(-c2nc3ccccc3s2)c1)N1CCCC1 | inconclusive [cytotoxic, single point] |  |
| Cc1cc(O)c2c(c1)C(=O)[C@@]13Oc4c5c(c(O)c6c(O)cc(C)cc46)C(=O)C[C@H](O)[C@H]5[C@@H]1[C@@H](O)CC(=O)C3=C2O | inconclusive [cytotoxic, single point] |  |
| Cc1cc(C)c2nc(NNC(=O)c3ccc(S(=O)(=O)N4CCc5ccccc5C4)cc3)sc2c1 | active: 6.51 µM |  |
| O=C1S/C(=C\c2ccc(N3CCOCC3)o2)C(=O)N1Cc1c(F)cccc1Cl | active: 3.55 µM |  |
| CC1=NOC(=O)/C1=C/c1ccc2c(c1)OCO2 | inactive |  |
| COc1ccc(C#Cc2c[nH]c(=O)c3cncnc23)cc1OC | inactive |  |
| OC(CNc1ccccc1)COc1ccc(OCC(O)CNc2ccccc2)cc1 (configuration not stated) | active: 20.6 µM |  |
| Nc1nc(N)c2cc(CNc3ccc(Cl)c(Cl)c3)ccc2n1 | active: 3.26 µM |  |
| COC(=O)Cn1cc(/C=C/[N+](=O)[O-])c2ccccc21 | active: 23.1 µM |  |
| CCN(Cc1ccc(NC(C)=O)cc1)CC1CCCN(CCc2cccc(F)c2)C1 (configuration not stated) | inconclusive [cytotoxic, single point] |  |

| Structure (SMILES) | Potency | activity, negative = toxicity |
| --- | --- | --- |
| O=c1cc(CN2CCN(C/C=C/c3ccccc3)CC2)c2cc(O)ccc2o1 | inconclusive [cytotoxic, partial curve] |  |
| COc1ccc(Oc2ccc(/C=C/C(=O)c3ccc(O)cc3)cc2[N+](=O)[O-])cc1 | inconclusive [cytotoxic, single point] |  |
| Cc1ccc(S(=O)(=O)N(C)Cc2ccccc2)cc1C(=O)N1CCCCC1 | inactive |  |
| Cc1ccc(C(=O)OCn2ncc(Cl)c(Cl)c2=O)cc1 | active: 5.17 µM |  |
| CCOc1ccc(S(=O)(=O)N(C)CC(=O)NC2CCCC2)cc1 | inactive |  |
| CSc1nc(-c2ccccc2)ccc1C(N)=O | inconclusive [cytotoxic, single point] |  |
| Cc1cc(NC(=O)c2cccc(F)c2)ncc1NC(=O)c1ccco1 | inconclusive [cytotoxic, partial curve] |  |
| Cc1cc2ccccn2c1C(=O)c1ccccc1Br | inconclusive [cytotoxic, single point] |  |
| Oc1cc2c(c(Cl)c1O)CCNCC2c1ccccc1 (configuration not stated) | inconclusive [cytotoxic, single point] |  |
| CC(=O)N1CCc2cc(S(=O)(=O)CCC(=O)N3CCN(c4ccccc4F)CC3)ccc21 | inactive |  |
| CN(C)S(=O)(=O)c1ccc(NC(=O)Cc2ccc(S(=O)(=O)N3CCOCC3)s2)cc1 | inactive |  |
| Cc1ccsc1/C=C1\Oc2cc(OCC(=O)c3ccccc3)ccc2C1=O | inconclusive [cytotoxic, single point] |  |
| CCCCn1c(OC(=S)N(CC)CC)cc(C)nc1=S | inactive |  |
| CCCC(O)(CCC)C(=O)NN(C(=O)CCl)c1cccc(C)c1 | active: 5.17 µM |  |
| CC(C)N1CCC2(CC1)N=C(c1ccc3c(c1)OCO3)CC(c1cc(Cl)ccc1O)N2 (configuration not stated) | inconclusive [cytotoxic, single point] |  |
| CN(C)c1ccc(/C=N/NC(=O)c2cc(-c3ccc4c(c3)OCO4)n[nH]2)cc1 | inconclusive [cytotoxic, partial curve] |  |
| Cc1nn(CC(C)C(=O)N2CCN(S(=O)(=O)c3ccc(Cl)cc3)CC2)c(C)c1C (configuration not stated) | inactive |  |
| O=C(NNc1c2ccccc2nc2ccccc12)c1ccc(O)cc1O | inconclusive [cytotoxic, single point] |  |
| O=C(N[C@@H]1CCC(=O)N(CC[C@H](Sc2ccccc2)c2ccccc2)CC1)OCc1ccccc1 | inconclusive [cytotoxic, single point] |  |
| Oc1ccc(CNc2ccccc2O)cc1 | inconclusive [cytotoxic, single point] |  |
| Nc1c(C(=O)N/N=C/c2ccc(Cl)cc2)cnn1-c1ccccc1 | inconclusive [cytotoxic, partial curve] |  |
| COCC(=O)O[C@]1(CCN(C)CCCc2nc3ccccc3[nH]2)CCc2cc(F)ccc2[C@@H]1C(C)C | inconclusive [cytotoxic, single point] |  |
| O=C(Cc1ccc(Cl)cc1)NCC(=O)N1CCN(c2ccccc2)CC1 | inconclusive [cytotoxic, single point] |  |
| COc1ccc(NC(=O)CN(C)C(=O)C2CC(=O)N(Cc3ccc(C)cc3)C2)cc1 (configuration not stated) | inactive |  |

| Structure (SMILES) | Potency | activity, negative = toxicity |
| --- | --- | --- |
| Fc1cccc(Cc2c(-c3ccco3)nc3ccc(Br)cn23)c1 | active: 16.4 µM |  |
| Cn1c(N)c(C(=O)COC(=O)C2(c3cccc(F)c3)CCCC2)c(=O)n(C)c1=O |  | inconclusive: -31.2% [cytotoxic] |
| COc1nccnc1NS(=O)(=O)c1ccc(N=Cc2c(C)[nH]n(-c3ccc(C)c(C)c3)c2=O)cc1 | active: 7.94 µM |  |
| CCN(CC)Cc1cc(Nc2ccnc3cc(Cl)ccc23)ccc1O | active: 20.6 µM |  |
| Cc1ccc2nc(SCC(=O)NC3CCCc4ccccc43)[nH]c2c1 (configuration not stated) | inconclusive [cytotoxic, partial curve] |  |
| N#C/C(=C/c1ccc(N2CCCCCC2)o1)c1ccc(F)cc1 | active: 9.2 µM |  |
| OC(c1ccccc1)c1ncc(-c2cccc(OCc3ccccc3)c2)[nH]1 (configuration not stated) | inconclusive [cytotoxic, single point] |  |
| CN(C(=O)CN1CCN(c2cc(-c3ccc(OCc4ccccc4)cc3)ncn2)CC1)c1ccccc1 | inconclusive [cytotoxic, single point] |  |
| COc1cccc(-c2nc(N3CCN(C)CC3)c3ccccc3n2)c1O | active: 14.6 µM |  |
| C[C@H](CO)N1C[C@H](C)[C@@H](CN(C)S(=O)(=O)c2ccccc2)Oc2c(NC(=O)Nc3ccc(C(F)(F)F)cc3)cccc2C1=O | inconclusive [cytotoxic, single point] |  |
| CC(=O)C1=C(O)C(=O)N(c2ccc(Br)cn2)C1c1ccc(Br)cc1 (configuration not stated) | inconclusive [cytotoxic, single point] |  |
| Cc1nc2c(-c3ccccc3)cnn2c(N)c1-c1ccccc1 | inconclusive [cytotoxic, partial curve] |  |
| C[C@H](CO)NC(=O)c1[nH]cnc1C(=O)Nc1cccc(Cl)c1 | inactive |  |
| O=C(COc1cccc(NC(=O)c2cccc([N+](=O)[O-])c2)c1)c1ccc(Br)cc1 | inconclusive [cytotoxic, partial curve] |  |
| CCc1nc(SCC(=O)O)c(C#N)c2c1CCCC2 |  | inconclusive: 1.57% |
| O=C(Nc1nc2ccccc2[nH]1)c1ccccc1F | active: 5.8 µM |  |
| Cc1cc(Br)ccc1OCCCCN1CCCCC1 | inconclusive [cytotoxic, partial curve, poor fit] |  |
| Cc1nn(-c2ccc(F)cc2)c2c1cc(C#N)c1nc3ccccc3n12 | inactive |  |
| COc1ccc(C(CNC(=O)c2cccc(NS(=O)(=O)c3ccc(Br)cc3)c2)N(C)C)cc1 (configuration not stated) | inconclusive [cytotoxic, single point] |  |
| Nc1nonc1-n1nnc(C(=O)N/N=C/c2cccnc2)c1CSC1=NCCS1 | inconclusive [cytotoxic, single point] |  |
| Cc1ccc(C(=O)C(C)OC(=O)CCN2C(=O)C3C4C=CC(C5CC45)C3C2=O)cc1 (configuration not stated) | inactive |  |
| Cc1ccc(OCC(O)Cn2c(=N)n(Cc3ccccc3)c3ccccc32)cc1 (configuration not stated) | active: 18.4 µM |  |
| CCc1ccccc1NC(=S)NC1CC2CCC(C1)N2Cc1ccco1 (configuration not stated) | inconclusive [cytotoxic, single point] |  |
| COc1ccc(-c2c(-c3cc(OC)cc(OC)c3)n(C)c3ccc(-c4cc(F)cc(OC)c4)cc23)cc1 | inactive |  |
